From article PMC9911399, “Two distinct binding modes provide the RNA-binding protein RbFox with extraordinary sequence specificity”
Positions count from the first letter of the chain named. The list shows a part of the results.

T1: RBFOX1 RRM RbFoxmut (Fox-RRM*) (Homo sapiens, UniProt Q9NWB1 109-208, R118D;E147R;N151S;E152T)
T1 sequence: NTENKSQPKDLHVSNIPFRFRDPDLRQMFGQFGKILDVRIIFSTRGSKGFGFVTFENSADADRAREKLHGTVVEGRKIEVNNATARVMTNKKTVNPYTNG

B1: AUCCAGA (DNA:RNA)
RNA: GGGAGACCGGAAUUCAGAUUGUCCAUCCAGAUUAAAUCCCGUCGUAGCCACCA
DNA 1: CAATCTGAATTCCGGTCTCCC
DNA 2: TGGTGGCTACGACGGGATT
B2: CGUCAGG (DNA:RNA)
RNA: B1 RNA with A25C, U26G, C27U, A31G
DNA 1: CAATCTGAATTCCGGTCTCCC
DNA 2: TGGTGGCTACGACGGGATT
B3: GCAAGAC (DNA:RNA)
RNA: GGGAGACCGGAAUUCAGAUUGUCCGCAAGACUUAAAUCCCGUCGUAGCCACCA
DNA 1: CAATCTGAATTCCGGTCTCCC
DNA 2: TGGTGGCTACGACGGGATT
B4: CUGUGUC (DNA:RNA)
RNA: B3 RNA with G25C, C26U, A27G, A28U, A30U
DNA 1: CAATCTGAATTCCGGTCTCCC
DNA 2: TGGTGGCTACGACGGGATT
B5: AUGAGGU (DNA:RNA)
RNA: B1 RNA with C27G, C28A, A29G, A31U
DNA 1: CAATCTGAATTCCGGTCTCCC
DNA 2: TGGTGGCTACGACGGGATT
B6: CUAGUCC (DNA:RNA)
RNA: B3 RNA with G25C, C26U, A28G, G29U, A30C
DNA 1: CAATCTGAATTCCGGTCTCCC
DNA 2: TGGTGGCTACGACGGGATT
B7: CAAGUGC (DNA:RNA)
RNA: B3 RNA with G25C, C26A, A28G, G29U, A30G
DNA 1: CAATCTGAATTCCGGTCTCCC
DNA 2: TGGTGGCTACGACGGGATT
B8: CGGCGUA (DNA:RNA)
RNA: B1 RNA with A25C, U26G, C27G, A29G, G30U
DNA 1: CAATCTGAATTCCGGTCTCCC
DNA 2: TGGTGGCTACGACGGGATT
B9: UGGAUGA (DNA:RNA)
RNA: B1 RNA with A25U, U26G, C27G, C28A, A29U
DNA 1: CAATCTGAATTCCGGTCTCCC
DNA 2: TGGTGGCTACGACGGGATT
B10: UCACGGU (DNA:RNA)
RNA: B3 RNA with G25U, A28C, A30G, C31U
DNA 1: CAATCTGAATTCCGGTCTCCC
DNA 2: TGGTGGCTACGACGGGATT
B11: CGAACGU (DNA:RNA)
RNA: B3 RNA with G25C, C26G, G29C, A30G, C31U
DNA 1: CAATCTGAATTCCGGTCTCCC
DNA 2: TGGTGGCTACGACGGGATT
B12: CGACAAC (DNA:RNA)
RNA: B3 RNA with G25C, C26G, A28C, G29A
DNA 1: CAATCTGAATTCCGGTCTCCC
DNA 2: TGGTGGCTACGACGGGATT
B13: UUCGUAU (DNA:RNA)
RNA: B1 RNA with A25U, C28G, A29U, G30A, A31U
DNA 1: CAATCTGAATTCCGGTCTCCC
DNA 2: TGGTGGCTACGACGGGATT
B14: UGGCUCC (DNA:RNA)
RNA: B1 RNA with A25U, U26G, C27G, A29U, G30C, A31C
DNA 1: CAATCTGAATTCCGGTCTCCC
DNA 2: TGGTGGCTACGACGGGATT
B15: UCUGCAA (DNA:RNA)
RNA: B3 RNA with G25U, A27U, A28G, G29C, C31A
DNA 1: CAATCTGAATTCCGGTCTCCC
DNA 2: TGGTGGCTACGACGGGATT
B16: GUGGGCG (DNA:RNA)
RNA: B3 RNA with C26U, A27G, A28G, A30C, C31G
DNA 1: CAATCTGAATTCCGGTCTCCC
DNA 2: TGGTGGCTACGACGGGATT
B17: ACUGGGC (DNA:RNA)
RNA: B3 RNA with G25A, A27U, A28G, A30G
DNA 1: CAATCTGAATTCCGGTCTCCC
DNA 2: TGGTGGCTACGACGGGATT
B18: GCCCCGG (DNA:RNA)
RNA: B1 RNA with A25G, U26C, A29C, A31G
DNA 1: CAATCTGAATTCCGGTCTCCC
DNA 2: TGGTGGCTACGACGGGATT
B19: CUUGGAU (DNA:RNA)
RNA: B3 RNA with G25C, C26U, A27U, A28G, C31U
DNA 1: CAATCTGAATTCCGGTCTCCC
DNA 2: TGGTGGCTACGACGGGATT
B20: CUGGAGG (DNA:RNA)
RNA: B1 RNA with A25C, C27G, C28G, A31G
DNA 1: CAATCTGAATTCCGGTCTCCC
DNA 2: TGGTGGCTACGACGGGATT
B21: UUUCACU (DNA:RNA)
RNA: B1 RNA with A25U, C27U, G30C, A31U
DNA 1: CAATCTGAATTCCGGTCTCCC
DNA 2: TGGTGGCTACGACGGGATT
B22: UCAGGGA (DNA:RNA)
RNA: B3 RNA with G25U, A28G, A30G, C31A
DNA 1: CAATCTGAATTCCGGTCTCCC
DNA 2: TGGTGGCTACGACGGGATT
B23: GGUCCUA (DNA:RNA)
RNA: B1 RNA with A25G, U26G, C27U, A29C, G30U
DNA 1: CAATCTGAATTCCGGTCTCCC
DNA 2: TGGTGGCTACGACGGGATT
B24: UUAAGUG (DNA:RNA)
RNA: B3 RNA with G25U, C26U, A30U, C31G
DNA 1: CAATCTGAATTCCGGTCTCCC
DNA 2: TGGTGGCTACGACGGGATT
B25: AUUGUGA (DNA:RNA)
RNA: B1 RNA with C27U, C28G, A29U
DNA 1: CAATCTGAATTCCGGTCTCCC
DNA 2: TGGTGGCTACGACGGGATT
B26: GGGAGUA (DNA:RNA)
RNA: B3 RNA with C26G, A27G, A30U, C31A
DNA 1: CAATCTGAATTCCGGTCTCCC
DNA 2: TGGTGGCTACGACGGGATT
B27: ACACCCA (DNA:RNA)
RNA: B1 RNA with U26C, C27A, A29C, G30C
DNA 1: CAATCTGAATTCCGGTCTCCC
DNA 2: TGGTGGCTACGACGGGATT
B28: CAUGUGA (DNA:RNA)
RNA: B1 RNA with A25C, U26A, C27U, C28G, A29U
DNA 1: CAATCTGAATTCCGGTCTCCC
DNA 2: TGGTGGCTACGACGGGATT
B29: GGGGAUG (DNA:RNA)
RNA: B1 RNA with A25G, U26G, C27G, C28G, G30U, A31G
DNA 1: CAATCTGAATTCCGGTCTCCC
DNA 2: TGGTGGCTACGACGGGATT
B30: UUGACGU (DNA:RNA)
RNA: B1 RNA with A25U, C27G, C28A, A29C, A31U
DNA 1: CAATCTGAATTCCGGTCTCCC
DNA 2: TGGTGGCTACGACGGGATT
B31: CGGCCUC (DNA:RNA)
RNA: B1 RNA with A25C, U26G, C27G, A29C, G30U, A31C
DNA 1: CAATCTGAATTCCGGTCTCCC
DNA 2: TGGTGGCTACGACGGGATT

Molecular target: T1, RBFOX1 RRM RbFoxmut (Fox-RRM*)
Experiment: EMSA; HiTS-Eq, 1 nM pool, 10 min; buffer printed only for the single-RNA assays: 10 mM Tris pH 7.5, 150 mM NaCl, 3.4 mM EDTA, 0.001% NP-40, 30 C
Settings: tags: His6 N-terminal (pET28a); label: 5' 32P
Method in brief: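 Purified wild-type or mutant RbFox RRM at increasing concentrations was equilibrated with 1 nM of 5′-radiolabelled RNA carrying 7 randomized nucleotides for 10 min in 50 µL. Unbound RNA was separated by 8% native PAGE and sequenced. Relative association constants came from read-count changes of each RNA species compared with the control reaction, normalised to the cognate motif.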

Binder	binding signal
B1	0.115 KA relative to UGCAUGU
B2	0.113 KA relative to UGCAUGU
B3	0.0722 KA relative to UGCAUGU
B4	0.436 KA relative to UGCAUGU
B5	0.128 KA relative to UGCAUGU
B6	0.0686 KA relative to UGCAUGU
B7	0.113 KA relative to UGCAUGU
B8	0.162 KA relative to UGCAUGU
B9	0.401 KA relative to UGCAUGU
B10	0.0803 KA relative to UGCAUGU
B11	0.175 KA relative to UGCAUGU
B12	0.0312 KA relative to UGCAUGU
B13	0.139 KA relative to UGCAUGU
B14	0.157 KA relative to UGCAUGU
B15	0.0595 KA relative to UGCAUGU
B16	0.18 KA relative to UGCAUGU

Binder	binding signal
B17	0.0912 KA relative to UGCAUGU
B18	0.0762 KA relative to UGCAUGU
B19	0.105 KA relative to UGCAUGU
B20	0.0707 KA relative to UGCAUGU
B21	0.0648 KA relative to UGCAUGU
B22	0.0515 KA relative to UGCAUGU
B23	0.103 KA relative to UGCAUGU
B24	0.122 KA relative to UGCAUGU
B25	0.0934 KA relative to UGCAUGU
B26	0.152 KA relative to UGCAUGU
B27	0.0786 KA relative to UGCAUGU
B28	0.102 KA relative to UGCAUGU
B29	0.612 KA relative to UGCAUGU
B30	0.0791 KA relative to UGCAUGU
B31	0.129 KA relative to UGCAUGU
